The supplement of paper PMC9446081
Out of some 39,000 compounds screened, about 220 (0.56%) showed activity. This is one part of the list.

system: Escherichia coli K-12 BW25113; assay: relative growth (OD600 normalised to plate interquartile mean) (fraction); higher = less growth inhibition, active = 0.2 or less; settings: 50 µM; LB; incubation time: overnight (16-24 h)
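Also: static incubation at 37 °C against the wild-type strain, values averaged over two biological replicates.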

Row | SMILES | relative growth
1 | CCS(=O)(=O)N1CC[C@H]2[C@H](CC1)S(=O)(=O)CCN2C(=O)c1ccccc1 | inactive: 1
2 | COc1cc([C@@H](O)[C@@H](CO[C@@H]2O[C@H](CO)[C@@H](O)[C@H](O)[C@H]2O)Oc2ccc(/C=C/CO)cc2OC)ccc1O | inactive: 0.99
3 | COc1ccc(S(=O)(=O)N(C)C[C@H]2Oc3cc(C#CC4CC4)ccc3S(=O)(=O)N([C@@H](C)CO)C[C@@H]2C)cc1 | inactive: 1.04
4 | Cl.NC1=NCC2c3ccccc3Cc3ccccc3N12 (stereo not drawn) | inactive: 1.14
5 | C[C@H](CO)N1C[C@H](C)[C@H](CN(C)Cc2ccc(F)cc2)Oc2ncc(C#Cc3cccnc3)cc2C1=O | inactive: 0.989
6 | O=C(CN1C(=O)COCC1=O)N1CCOCC1 | inactive: 1
7 | C[C@H]1CN([C@@H](C)CO)C(=O)c2cc(-c3ccc(C(=O)N(C)C)cc3)cnc2O[C@H]1CN(C)C(=O)C1CC1 | inactive: 0.973
8 | CCCC#Cc1ccc2c(c1)O[C@H](CN(C)S(=O)(=O)c1cccc(F)c1)[C@@H](C)CN([C@@H](C)CO)S2(=O)=O | inactive: 1
9 | COc1ccc([Si](C)(C)[C@H]2[C@H](CC(=O)N3CCC[C@H]3CO)O[C@@]3(C(=O)N(Cc4ccc(N5CCCCC5=O)cc4)c4ccccc43)[C@@H]2C)cc1 | inactive: 1.01
10 | O=C(C[C@H]1C=C[C@@H](NC(=O)Nc2ccc3c(c2)OCO3)[C@@H](CO)O1)NCCCN1CCOCC1 | inactive: 0.992
11 | C[C@@H]1CCCCO[C@H](CN(C)S(=O)(=O)c2cccs2)[C@H](C)CN([C@@H](C)CO)C(=O)c2cc(NC(=O)CCC(F)(F)F)ccc2O1 | inactive: 0.924
12 | CS(=O)(=O)N1C[C@H](O)COC[C@@H]2O[C@@H](CC(=O)NCCc3ccncc3)CC[C@H]21 | inactive: 0.96
13 | O=C(O)c1csc2c1CCCCC2 | inactive: 1.01
14 | COc1ccccc1-c1cccc(-c2nc(C(=O)N3CCCCC3)cc3c2[C@@H](CCO)N([S@@](=O)C(C)(C)C)C3)c1 | inactive: 1.02
15 | COc1ccc(NC(=O)Nc2ccc3c(c2)C(=O)N([C@@H](C)CO)C[C@H](C)[C@@H](CN(C)S(C)(=O)=O)O3)cc1 | inactive: 1.03
16 | CCCC#Cc1cnc2c(c1)C(=O)N([C@H](C)CO)C[C@@H](C)[C@H](CN(C)S(=O)(=O)c1cccc(OC)c1)O2 | inactive: 1.01
17 | C[C@@H]1CCCCO[C@@H](CN(C)C(=O)Nc2ccc(C(F)(F)F)cc2)[C@@H](C)CN([C@H](C)CO)C(=O)c2cc(NS(=O)(=O)c3ccc(Cl)cc3)ccc2O1 | inactive: 0.987
18 | CS(=O)(=O)N1CCn2cc(Cn3cncn3)nc2C1 | inactive: 0.985
